The GPR68 mutational scans of Howard et al. (2025)
The least precise scores are not listed. Not listed are two conditions whose scores span a narrow range. Names with del lack the residues named; names with ins carry added residues between the positions named. For part of these data: The data file names ogerin without a concentration.

B1: GPR68, Q15743 (parent)
chain: MGNITADNSSMSCTIDHTIHQTLAPVVYVTVLVVGFPANCLSLYFGYLQIKARNELGVYLCNLTVADLFYICSLPFWLQYVLQHDNWSHGDLSCQVCGILLYENIYISVGFLCCISVDRYLAVAHPFRFHQFRTLKAAVGVSVVIWAKELLTSIYFLMHEEVIEDENQHRVCFEHYPIQAWQRAINYYRFLVGFLFPICLLLASYQGILRAVRRSHGTQKSRKDQIQRLVLSTVVIFLACFLPYHVLLLVRSVWEASCDFAKGVFNAYHFSLLLTSFNCVADPVLYCFVSETTHRDLARLRGACLAFLTCSRTGRAREAYPLGAPEASGKSGAQGEEPELLTKLHPAFQTPNSPGSGGFPTGRLA

Columns and labels:
[1] = variants of: B1; test: cAMP reporter score (Enrich2 score, wild type = 0); higher = more signal; HEK293T, FACS bins
[2] = variants of: B1; test: surface expression score (Enrich2 score, wild type = 0); higher = more signal; HEK293T, FACS bins

## A333E
[1]; pH 5.5
  cAMP reporter score: 1.01
[1]; pH 6
  cAMP reporter score: 0.042
[1]; pH 6, modulator: ogerin
  cAMP reporter score: 1.06
[1]; pH 6.5, modulator: ogerin
  cAMP reporter score: 1
[2]
  surface expression score: 1.21

## A333F
[1]; pH 5.5
  cAMP reporter score: 0.334
[1]; pH 6
  cAMP reporter score: -0.295
[1]; pH 6, modulator: ogerin
  cAMP reporter score: 0.039
[1]; pH 6.5, modulator: ogerin
  cAMP reporter score: -0.13
[2]
  surface expression score: -0.151

## A333G
[1]; pH 5.5
  cAMP reporter score: 0.578
[1]; pH 6, modulator: ogerin
  cAMP reporter score: 0.947
[1]; pH 6.5, modulator: ogerin
  cAMP reporter score: -0.019
[2]
  surface expression score: -0.033

## A333H
[1]; pH 5.5
  cAMP reporter score: -0.371
[1]; pH 6
  cAMP reporter score: 0.088
[1]; pH 6, modulator: ogerin
  cAMP reporter score: 0.543
[1]; pH 6.5, modulator: ogerin
  cAMP reporter score: -0.512
[2]
  surface expression score: -0.004

## A333I
[1]; pH 5.5
  cAMP reporter score: 0.638
[1]; pH 6
  cAMP reporter score: -0.523
[1]; pH 6, modulator: ogerin
  cAMP reporter score: 0.567
[1]; pH 6.5, modulator: ogerin
  cAMP reporter score: 0.461
[2]
  surface expression score: 0.251

## A333K
[1]; pH 5.5
  cAMP reporter score: -0.145
[1]; pH 6
  cAMP reporter score: -0.101
[1]; pH 6, modulator: ogerin
  cAMP reporter score: -0.152
[1]; pH 6.5, modulator: ogerin
  cAMP reporter score: -0.658
[2]
  surface expression score: 0.089

## A333L
[1]; pH 5.5
  cAMP reporter score: 0.473
[1]; pH 6
  cAMP reporter score: -0.095
[1]; pH 6, modulator: ogerin
  cAMP reporter score: 1.2
[1]; pH 6.5, modulator: ogerin
  cAMP reporter score: 1.28
[2]
  surface expression score: 0.562

## A333M
[1]; pH 5.5
  cAMP reporter score: 1.35
[1]; pH 6
  cAMP reporter score: 0.629
[1]; pH 6, modulator: ogerin
  cAMP reporter score: 1.67
[1]; pH 6.5, modulator: ogerin
  cAMP reporter score: 1.09
[2]
  surface expression score: 1.5

## A333N
[1]; pH 5.5
  cAMP reporter score: 1.19
[1]; pH 6
  cAMP reporter score: 3.03
[1]; pH 6.5, modulator: ogerin
  cAMP reporter score: 2.31
[2]
  surface expression score: 1.41

## A333P
[1]; pH 5.5
  cAMP reporter score: -0.16
[1]; pH 6
  cAMP reporter score: -0.374
[1]; pH 6, modulator: ogerin
  cAMP reporter score: -0.23
[1]; pH 6.5, modulator: ogerin
  cAMP reporter score: -0.613
[2]
  surface expression score: -0.892

## A333Q
[1]; pH 5.5
  cAMP reporter score: 1.13
[1]; pH 6
  cAMP reporter score: 0.649
[1]; pH 6, modulator: ogerin
  cAMP reporter score: 0.853
[1]; pH 6.5, modulator: ogerin
  cAMP reporter score: 0.316
[2]
  surface expression score: 0.289

## A333R
[1]; pH 5.5
  cAMP reporter score: 2.15
[1]; pH 6
  cAMP reporter score: 2.25
[1]; pH 6, modulator: ogerin
  cAMP reporter score: 2.61
[1]; pH 6.5, modulator: ogerin
  cAMP reporter score: 1.22
[2]
  surface expression score: 1.02

## A333S
[1]; pH 5.5
  cAMP reporter score: 1.45
[1]; pH 6
  cAMP reporter score: -0.215
[1]; pH 6, modulator: ogerin
  cAMP reporter score: 1.36
[1]; pH 6.5, modulator: ogerin
  cAMP reporter score: 0.791
[2]
  surface expression score: 1.3

## A333T
[1]; pH 5.5
  cAMP reporter score: -0.14
[1]; pH 6
  cAMP reporter score: 0.135
[1]; pH 6, modulator: ogerin
  cAMP reporter score: -0.025
[1]; pH 6.5, modulator: ogerin
  cAMP reporter score: -0.13
[2]
  surface expression score: -0.012

## A333V
[1]; pH 5.5
  cAMP reporter score: -0.248
[1]; pH 6
  cAMP reporter score: 1.01
[1]; pH 6, modulator: ogerin
  cAMP reporter score: 0.084
[1]; pH 6.5, modulator: ogerin
  cAMP reporter score: 0.317
[2]
  surface expression score: -0.5

## A333W
[1]; pH 5.5
  cAMP reporter score: -0.05
[1]; pH 6
  cAMP reporter score: -0.043
[1]; pH 6, modulator: ogerin
  cAMP reporter score: 0.06
[1]; pH 6.5, modulator: ogerin
  cAMP reporter score: -0.099
[2]
  surface expression score: -0.295

## A333Y
[1]; pH 5.5
  cAMP reporter score: 0.803
[1]; pH 6
  cAMP reporter score: 0.144
[1]; pH 6, modulator: ogerin
  cAMP reporter score: 0.733
[1]; pH 6.5, modulator: ogerin
  cAMP reporter score: -0.187
[2]
  surface expression score: 0.359

## A333_G335del
[1]; pH 5.5
  cAMP reporter score: 0.531
[1]; pH 6
  cAMP reporter score: 1.33
[1]; pH 6, modulator: ogerin
  cAMP reporter score: 0.322
[1]; pH 6.5, modulator: ogerin
  cAMP reporter score: -0.056
[2]
  surface expression score: 0.626

## A333_Q334insGS
[1]; pH 5.5
  cAMP reporter score: 0.476
[1]; pH 6
  cAMP reporter score: 0.246
[1]; pH 6, modulator: ogerin
  cAMP reporter score: 0.621
[1]; pH 6.5, modulator: ogerin
  cAMP reporter score: 0.239
[2]
  surface expression score: 0.702

## A333_Q334insGSG
[1]; pH 5.5
  cAMP reporter score: 0.344
[1]; pH 6
  cAMP reporter score: 0.437
[1]; pH 6, modulator: ogerin
  cAMP reporter score: 0.735
[1]; pH 6.5, modulator: ogerin
  cAMP reporter score: 0.63
[2]
  surface expression score: 0.293

## A333del
[1]; pH 5.5
  cAMP reporter score: 0.869
[1]; pH 6
  cAMP reporter score: 0.31
[1]; pH 6, modulator: ogerin
  cAMP reporter score: 0.493
[1]; pH 6.5, modulator: ogerin
  cAMP reporter score: 0.145
[2]
  surface expression score: 0.259

## Q334A
[1]; pH 5.5
  cAMP reporter score: 0.676
[1]; pH 6
  cAMP reporter score: 0.756
[1]; pH 6, modulator: ogerin
  cAMP reporter score: 0.935
[1]; pH 6.5, modulator: ogerin
  cAMP reporter score: 0.731
[2]
  surface expression score: 0.815

## Q334C
[1]; pH 5.5
  cAMP reporter score: -1.3
[1]; pH 6
  cAMP reporter score: -0.513
[1]; pH 6, modulator: ogerin
  cAMP reporter score: -1.05
[1]; pH 6.5, modulator: ogerin
  cAMP reporter score: -0.863
[2]
  surface expression score: -0.89

## Q334D
[1]; pH 5.5
  cAMP reporter score: -0.513
[1]; pH 6
  cAMP reporter score: -0.458
[1]; pH 6, modulator: ogerin
  cAMP reporter score: 0.184
[1]; pH 6.5, modulator: ogerin
  cAMP reporter score: 1.09
[2]
  surface expression score: -0.809

## Q334E
[1]; pH 5.5
  cAMP reporter score: 0.207
[1]; pH 6
  cAMP reporter score: 0.22
[1]; pH 6, modulator: ogerin
  cAMP reporter score: 0.135
[1]; pH 6.5, modulator: ogerin
  cAMP reporter score: 1.06
[2]
  surface expression score: 0.773

## Q334F
[1]; pH 5.5
  cAMP reporter score: 0.961
[1]; pH 6, modulator: ogerin
  cAMP reporter score: 0.65
[1]; pH 6.5, modulator: ogerin
  cAMP reporter score: 0.232
[2]
  surface expression score: 0.173

## Q334G
[1]; pH 5.5
  cAMP reporter score: 1.19
[1]; pH 6
  cAMP reporter score: 1.47
[1]; pH 6, modulator: ogerin
  cAMP reporter score: 0.994
[1]; pH 6.5, modulator: ogerin
  cAMP reporter score: 0.654
[2]
  surface expression score: 0.764

## Q334H
[1]; pH 5.5
  cAMP reporter score: 1.46
[1]; pH 6
  cAMP reporter score: 0.615
[1]; pH 6, modulator: ogerin
  cAMP reporter score: 1.29
[1]; pH 6.5, modulator: ogerin
  cAMP reporter score: 1.74
[2]
  surface expression score: 1.03

## Q334I
[1]; pH 5.5
  cAMP reporter score: 0.279
[1]; pH 6
  cAMP reporter score: 0.41
[1]; pH 6, modulator: ogerin
  cAMP reporter score: 0.403
[1]; pH 6.5, modulator: ogerin
  cAMP reporter score: 0.691
[2]
  surface expression score: 0.51

## Q334K
[1]; pH 5.5
  cAMP reporter score: 1.04
[1]; pH 6
  cAMP reporter score: 2.14
[1]; pH 6, modulator: ogerin
  cAMP reporter score: 1.47
[1]; pH 6.5, modulator: ogerin
  cAMP reporter score: 2.67
[2]
  surface expression score: 1.07

## Q334L
[1]; pH 5.5
  cAMP reporter score: 1.85
[1]; pH 6
  cAMP reporter score: 0.793
[1]; pH 6, modulator: ogerin
  cAMP reporter score: -2.43
